Measured values: ChEMBL document CHEMBL4888484, “Replenishing the malaria drug discovery pipeline: Screening and hit evaluation of the MMV Hit Generation Library 1 (HGL1) against asexual blood stage Plasmodium falciparum ,using a nano luciferase reporter read-out” (2022)
The whole screen tested about 150,000 compounds, of which about 540 (0.36%) showed an effect of 50% or more. This is one part of the list.

The compounds below were run on Plasmodium falciparum (assay: Primary screen in NF54 nanoGlo assay, in single point, at 2uM, 72h; a lower Z score goes with more inhibition). Conditions: timepoint 72 hour.
Format: functional, Erythrocyte

SMILES	% Inhibition	Z score
COc1ccc(CN(Cc2ccco2)C(=O)c2cccc(F)c2)cc1OS(=O)(=O)c1ccc(F)cc1	-33%	2.87
COc1ccc(CCN2CCCN(c3ccc(C(F)(F)F)cn3)CC2)cc1	-14%	1.52
COC(C)c1nc(C)c(C(=O)NC2(C)CCCc3ccccc32)s1 (stereo unspecified)	-2%	0.29
O=C(NCCCOCC1CCCO1)N1CCOC(c2ccc(F)c(F)c2)C1 (stereo unspecified)	-12%	1.39
Cc1ccc(NC(=O)c2ccc3c(c2)nnn3Cc2ccccc2)cc1C	13%	-1.27
COc1ccccc1C(=O)N[C@@H]1c2ccccc2C2(CCNCC2)[C@H]1OC	2%	-0.32
Cn1cc(C2CN(C(=O)[C@H]3C[C@@H]3c3ccccc3Cl)CCN2)cn1 (stereo partly specified)	6%	-0.87
Cc1ncc2c(c1-c1noc(Cn3cc4ccccc4n3)n1)CCNC2	6%	-1.12
O=C(c1ccc(C(F)(F)F)nc1)N1C2CCC1CC(n1ccnc1)C2 (stereo unspecified)	-8%	1.08
CC(C)c1nc(CN2C(=O)c3ccccc3C2=O)n(-c2ccccn2)n1	-7%	0.87
CCCN(CC1CCCCO1)C(=O)NC(C)c1cn(C)nc1C (stereo unspecified)	-9%	1.46
CC(C)CCNC(=O)C(=Cc1ccc(Cl)c(Cl)c1)C(=O)NCCC(C)C	34%	-3.8
O=S(=O)(Nc1ccccc1-c1nnc2n1CCCCC2)c1ccc(Cl)cc1	5%	-0.77
c1cc2cc(CN3C[C@@H]4CC[C@H]3CN(Cc3cscn3)C4)ccc2[nH]1	-1%	0.16
Cc1cc(S(=O)(=O)NCCOCC(N)=O)sc1Cl	2%	-0.34
Cc1ccc(CNC(=O)c2cc(N3CCNC3=O)c(F)cc2F)n1C	-11%	2.15
COCC1(C(=O)NCCc2cn(C)c3cc(F)ccc23)CCOCC1	-6%	0.8
Cc1ccc(-n2nc(C)c3sc(N4CCC(NC(=O)c5ccccc5C)CC4)nc32)cc1	-7%	0.86
CCCNC(=O)CCNC(=O)N1CC[C@]2(CCOC2)C1	-2%	0.32
CCCC(NC(C)c1cnccn1)c1cccc(C(F)(F)F)c1 (stereo unspecified)	-7%	0.82
CCOc1cncc(CN2CCC3(CCc4ccccc4C3=O)CC2)c1	-5%	0.83
COc1ncnc(N(C)C)c1NC(=O)c1ccc(Cl)cn1	-14%	1.69

SMILES	% Inhibition	Z score
Cc1cc(N)n(CC(=O)NCCN(C)CCc2ccccc2)n1	0%	0.05
CCOc1ncccc1NC(=O)Cc1c(C)nn(C)c1C	-10%	1.79
c1csc(CCN2CCc3cncnc3C2)c1	-19%	3.39
Cc1cc(CN(C)C(=O)CN2CCCCCC2)on1	-13%	1.25
CN(C)c1ccccc1NC(=O)C1=Cc2ccccc2OC1	-13%	2.5
COc1cccc(-c2ccc(N3CCN(C(=O)CN(Cc4ccccc4)C(=O)c4ccc(F)cc4)CC3)nn2)c1	7%	-1.24
CC1c2ccc(F)cc2CCN1C(=O)c1cnc(C2CCCO2)s1 (stereo unspecified)	6%	-0.61
COC[C@H]1CN(c2cc3nncn3c(C)n2)CC(C)(C)O1	-28%	2.96
Cc1ccc(C2=Nc3ccccc3N=C(C(F)(F)C(F)F)C2)cc1	-1%	0.16
c1nc(-c2noc(C3CC3C3CCCCC3)n2)cs1 (stereo unspecified)	4%	-0.53
O=S(=O)(Nc1cc(CO)ccc1Br)N1CCCC1	2%	-0.3
C[C@@H](C(N)=O)N1CCCN(S(=O)(=O)c2ccc3c(c2)OCCO3)CC1	-4%	0.67
CC(C)c1nnc(NC(=O)[C@H]2CCN(C3CCCCC3)C2)[nH]1	9%	-1.36
CCOC(=O)C1(F)CN(CCOC2CCCCO2)CC12COC2 (stereo unspecified)	-3%	0.4
O=C1COc2cccc(C(=O)N3CCC([C@H]4CCOC4)CC3)c2N1	-12%	1.28
Cc1cc(N2CCOCC2)n2nc(CN3CCC[C@H](C)C3)nc2n1	-4%	0.51
COC(C)C(=O)N1CCOC(c2ccc(Br)cc2)C1C (stereo unspecified)	0%	0
CCn1c(C)cc(C)c(-c2nc(Cc3ccc(OC)cc3)n[nH]2)c1=O	-12%	1.42
Clc1cc(CN2CCCN(C[C@H]3CCCO3)CC2)cc2c1OCCO2	-2%	0.37
C[C@H](NC(=O)N(C)CC(F)F)c1ccc(OCC(F)(F)F)cc1	-5%	0.98
CCn1cnc2c(c1=O)CCN([C@H]1CCN(c3cc(OC)cc(OC)c3)C1=O)C2	-7%	0.76
